In article PMC6919601, “Identification of Plasmodium dipeptidyl aminopeptidase allosteric inhibitors by high throughput screening” (PLoS ONE, 2019):
The whole screen tested about 110,000 compounds, of which about 230 (0.21%) showed an effect of 50% or more. Some of the results follow.

molecular target: DPAP1 (Plasmodium falciparum, UniProt Q8IIJ9); assay: primary screen, percent inhibition; read by cleavage of a fluorogenic dipeptide substrate; higher = more effect of the substance; set-up: species or system P. falciparum D10 trophozoite lysates; single well
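Further: 30 min substrate incubation versus DMSO and 10 µM JCP410 controls.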

Sequence of DPAP1 (Q8IIJ9 whole entry, looked up): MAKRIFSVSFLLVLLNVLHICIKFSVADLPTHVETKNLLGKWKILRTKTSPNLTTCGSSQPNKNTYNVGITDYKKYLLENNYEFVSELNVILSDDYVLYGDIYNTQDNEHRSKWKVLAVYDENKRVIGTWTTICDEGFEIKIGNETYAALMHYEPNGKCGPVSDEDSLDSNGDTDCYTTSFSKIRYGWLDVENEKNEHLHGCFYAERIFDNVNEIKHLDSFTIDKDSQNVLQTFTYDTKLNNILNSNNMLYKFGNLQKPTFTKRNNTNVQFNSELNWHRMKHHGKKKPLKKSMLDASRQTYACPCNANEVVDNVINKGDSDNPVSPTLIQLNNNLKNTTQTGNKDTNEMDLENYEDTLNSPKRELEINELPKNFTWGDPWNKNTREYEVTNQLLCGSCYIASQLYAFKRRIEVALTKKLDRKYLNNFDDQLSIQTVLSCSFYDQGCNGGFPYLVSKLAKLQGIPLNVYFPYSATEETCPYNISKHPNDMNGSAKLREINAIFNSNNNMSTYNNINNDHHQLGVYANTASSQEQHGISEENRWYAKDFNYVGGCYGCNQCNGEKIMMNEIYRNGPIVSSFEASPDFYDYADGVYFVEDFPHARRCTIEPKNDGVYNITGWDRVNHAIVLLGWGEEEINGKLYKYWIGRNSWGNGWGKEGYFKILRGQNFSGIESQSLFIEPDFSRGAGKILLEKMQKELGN

Row | Structure (SMILES) | % Inhibition @ 10 uM [%]
1 | Cc1ccccc1Cn1c2ccccc2c2cnn(CC(=O)NCCN3CCN(C)CC3)c(=O)c21 | 9.33
2 | c1c(CN2CCCCC2)n[nH]c1C1CCCCC1 | 0.0345
3 | O=C(NCCCN1CCOCC1)C1CCN(S(=O)(=O)N2CCC3(CC2)OCCO3)CC1 | -1.21
4 | COc1ccccc1OCC(=O)Nc1sc2c(c1C(=O)NCc1cccnc1)CCCC2 | 5.66
5 | Cc1c(C(=O)Nc2ccc3ccccc3c2)cnn1-c1ccccc1 | 1.57
6 | CCCCN1C(=O)/C(=C\Nc2ccc(Cl)cc2)C(=O)N(Cc2ccco2)C1=O | -4.75
7 | CC(C)c1ccc(/C=C2/SC(=O)NC2=O)cc1 | 3.66
8 | O=C(NCc1ccc2c(c1)OCO2)C1CCCN(S(=O)(=O)N2CCOCC2)C1 (centres unmarked) | 1.45
9 | CCCCC(=O)Nc1nonc1-c1ccc(OCCC)c(OCCC)c1 | 0.248
10 | Cn1c(=O)n(Cc2ccccc2)c(=O)c2c1nc(Cl)n2Cc1ccccc1 | -2.26
11 | CCC(C)OC(=O)C1=C(C)NC(=O)CC1c1ccc(Br)cc1 (centres unmarked) | -2.24
12 | O=C(Nc1cc(Cl)cc(Cl)c1)c1ccc(Br)cc1 | -0.856
13 | CCOC(=O)c1c(C)[nH]c(C)c1S(=O)(=O)NCC(=O)NCc1cccs1 | -2.13
14 | Cc1nn(-c2ccc(C34CC5CC(CC(C5)C3)C4)cc2)c(O)c1/C=N/c1ccc(S(N)(=O)=O)cc1 | -2.64
15 | O=C(Nc1ccc2c(c1)C(=O)NC2=O)c1ccc(NC(=O)c2ccco2)cc1 | -3.45
16 | CC(C)(C)C1CCc2c(sc(NC(=O)c3ccco3)c2C(N)=O)C1 (centres unmarked) | 3.17
17 | O=[N+]([O-])c1ccc(-c2cnc(-c3ccccc3)nc2)cc1 | 1.91
18 | CCOC(=O)c1cc(-c2ccccc2)n(-c2ccc(OCC)cc2)n1 | 0.408
19 | CCc1ccc(-c2cc3c(=O)n(CC(=O)NCCCc4ccccc4)nc(C)n3n2)cc1 | 0.623
20 | O=C(Cn1c(=O)n(Cc2ccccc2)c(=O)c2sc3ccccc3c21)NC1CCCCC1 | 5.09
21 | COCCNC(=O)CS(=O)(=O)Cc1nc(-c2ccc(C)cc2)oc1C | -0.138
22 | O=C(COCc1cc(-c2cccs2)on1)NCCc1ccccc1 | 1.86
23 | CCOc1ccc(CNC(CC(C)C)C(=O)O)cc1 (centres unmarked) | 1.42
24 | Cc1cc2c(c(=O)n1Cc1cccnc1)C(Cc1ccccc1)C(C#N)=C(N)O2 (centres unmarked) | -3.14

Row | Structure (SMILES) | % Inhibition @ 10 uM [%]
25 | COc1cc(/C=C2\SC(Nc3ccccc3)=NC2=O)ccc1OCC(=O)O | 2.92
26 | COc1ccc(Cl)cc1-n1cccc1/C=C1/C(=N)N2C(C)=CSC2=NC1=O | -3.35
27 | Cc1oc(-c2cccs2)nc1CN1CCCC(C(=O)NC2CCCc3ccccc32)C1 (centres unmarked) | 0.689
28 | CCN(CC)CCNC(=O)c1ccc(CS(=O)(=O)c2ccc(Br)cc2)o1 | 2.14
29 | O=C(CSCc1cnn(-c2ccccc2)c1-n1cccc1)NCC1CCCO1 (centres unmarked) | 5.42
30 | COc1cc(OC)cc(C(=O)N2CCN(Cc3cc(OC)c(OC)c(OC)c3)CC2)c1 | -6.64
31 | CC1(C)CC(=O)C2=C(C1)NC(=O)CC2c1ccc(Cl)c(Cl)c1 (centres unmarked) | -1.29
32 | COC(=O)c1ccc(C(c2c(O)oc3ccccc3c2=O)c2c(O)oc3ccccc3c2=O)cc1 | 7.95
33 | Cc1cccc(S(=O)(=O)Nc2cccc(-c3cn4cccnc4n3)c2)c1 | 0.13
34 | CCN(CC)CCn1c(SCC(=O)N2CCC(C)CC2)nc2c(sc3ccccc32)c1=O | 5.27
35 | COC(=O)C1=C(C)N=c2s/c(=C/c3ccc(Cl)cc3)c(=O)n2C1c1ccccc1 (centres unmarked) | -2.91
36 | O=C(O)c1nccnc1C(=O)Nc1ccc(Cl)cc1 | 1.29
37 | COc1ccccc1C(=O)Nc1c(C(=O)N2CCN(C)CC2)oc2ccccc12 | -4.22
38 | Cc1ccc(-n2nc(C)c3c(C(=O)NCc4ccccn4)cc(C4CC4)nc32)cc1 | 3.53
39 | CCCCNC(=O)CCC(=O)N1Cc2ccccc2Oc2ncccc21 | -3.53
40 | O=C1CN=C(Nc2nc3ccccc3o2)N1 | 0.345
41 | CCCC1=NN2C(=N)/C(=C/c3ccc(O)c(OC)c3)C(=O)N=C2S1 | -6.69
42 | CCN(CC)CCN1CC(c2ccccc2)CC1=O (centres unmarked) | -1.42
43 | Cc1nn(CC(=O)NCc2cccc(Cl)c2)c(=O)c2c1sc1ccccc12 | 2.06
44 | O=C(Cc1ccccc1)Nc1ccc(C(=O)c2ccccc2)cc1 | 0.686
45 | CCOC(=O)N1CCN(C(=O)C(C)n2ccc3cc(S(=O)(=O)N4CCCCCC4)ccc32)CC1 (centres unmarked) | 4.32
46 | COc1ccc(-c2noc(C3CCN(C(=O)OC(C)(C)C)CC3)c2C(=O)O)cc1 | -2.83
47 | COc1cccc(CSc2nc3ccncc3n2CC(=O)NCCC2=CCCCC2)c1 | 2.45
48 | O=C(COc1ccccc1Br)Nc1cccc(C(F)(F)F)c1 | -3.23

Row | Structure (SMILES) | % Inhibition @ 10 uM [%]
49 | CCc1oc(C(=O)O)cc1CN1CCCCC1 | 0.0539
50 | COc1ccc(OC)c(S(=O)(=O)NCc2ccccc2)c1 | 5.31
51 | Cc1ccc(Cc2nnc(C(=O)NCCCN3CCC(Cc4ccccc4)CC3)o2)cc1 | -2.23
52 | Cc1c(CN2CC(C)CC(C)C2)c(=O)n(-c2ccccc2)n1C (centres unmarked) | -3.27
53 | COC(=O)c1ccc(/C=N\n2c(C)nnc2C)cc1 | -3.98
54 | Cc1ccc(C(=O)N/C(=C/c2cccnc2)C(=O)Nc2cccc(Br)c2)cc1 | -4.03
55 | Cc1ccc(-n2nc3c(=O)n(C(C)C(=O)NCc4ccc5c(c4)OCO5)nc(C)c3c2C)cc1 (centres unmarked) | 9.94
56 | Cc1cc2c(o1)-c1c(oc3ccccc13)CCC2(C)c1ccccc1 (centres unmarked) | 1.62
57 | CCOC(=O)C1=C(c2ccccc2)O/C(=C(/C(=O)OC)C(F)(F)F)S1 | -1.6
58 | CCOC(=O)C1=CN(C)C=C(C(=O)OCC)C1c1ccc(O)c(OC)c1 | 3.45
59 | CN1CCN(c2cc([N+](=O)[O-])ccc2Cl)CC1 | -5.62
60 | CCOc1cc(-c2ccc(O)cc2)cc(=O)c2c(C)oc(C)c12 | -8.52
61 | Oc1c2c(nc3nc(-c4ccco4)nn13)CCC2 | -6.04
62 | CCCNCP(=O)(O)CNCCC | -2.63
63 | O=C(CN(CCc1ccccc1)S(=O)(=O)c1ccc(Cl)cc1)NCc1ccccn1 | -4.51
64 | COc1ccc(-c2cc(C)no2)cc1S(=O)(=O)NCCc1ccc(SC)cc1 | -0.873
65 | C=CCNC(=O)C(=O)NCc1ccccc1 | -2.18
66 | CC1(C)CC(=O)C2=C(C1)NC(=O)CC2c1ccc2ccccc2c1 (centres unmarked) | 8.91
67 | CCOC(=O)c1c(NC(=O)COc2ccc(Cl)cc2C)sc(C(=O)NC2CCCC2)c1C | 2.25
68 | CCOC(=O)c1c(NC(=O)COc2ccc(Cl)cc2C)sc(C(=O)N2CCCCC2)c1C | -1.46
69 | Cc1ccc(C(=O)Nc2nc(-c3ccc(Cl)cc3)cs2)o1 | -8.05
70 | CC/N=C1/SC(CC(=O)Nc2cccc(C(F)(F)F)c2)C(=O)N1CC (centres unmarked) | -1.57
71 | COc1cc(Br)cc(/C=C2/NC(=O)N(c3cccc(Cl)c3)C2=O)c1O | 0.764
72 | CC(=O)N(CCCN(C)C)c1nc2cc(C)cc(C)c2s1 | 0.49

Row | Structure (SMILES) | % Inhibition @ 10 uM [%]
73 | NC(=O)Cn1c(=O)n(Cc2ccc(F)cc2)c(=O)c2cccnc21 | 1.72
74 | CC(C)C[C@@H](/C=C/S(C)(=O)=O)NC(=O)[C@H](Cc1ccc(O)cc1)NC(=O)[C@H](CC(C)C)NC(=O)[C@H](CC(C)C)NC(=O)OC(C)(C)C | -1.41
75 | c1ccc(CCN2CCC(N(CCc3ccccc3)Cc3ccccc3)CC2)cc1 | -1.81
76 | COc1cc(C2CC(=O)c3c([nH]c(C(=O)OCc4ccccc4)c3C)C2)cc(OC)c1OC (centres unmarked) | -1.92
77 | CCOC(=O)N1CCN(C(=O)CSc2ccc(-c3cccs3)nn2)CC1 | 15
78 | O=C(Nc1nc(-c2ccc(S(=O)(=O)N3CCCC3)cc2)cs1)C1COc2ccccc2O1 (centres unmarked) | 2.64
79 | Cn1nc(C(=O)NCc2cccnc2)c2c1-c1ccccc1S(=O)(=O)C2 | 0.0845
80 | Cc1ccsc1CN1CC(C)OC(C)C1 (centres unmarked) | 6.53
81 | C=C1C(C(=O)N2CCN(Cc3ccccc3)CC2)C1C(=O)N1CCN(Cc2ccccc2)CC1 (centres unmarked) | -7.43
82 | Cc1cc(C)c(S(=O)(=O)N2CCC(C(=O)Nc3ccc(F)cc3F)CC2)c(C)c1 | 7.67
83 | N#CC1=C(N)N(c2nc[nH]n2)C2=C(C(=O)CCC2)C1c1ccc(F)cc1 (centres unmarked) | -1.98
84 | Clc1ccc(C2Oc3ccccc3C3=C2C(c2cccs2)n2ncnc2N3)cc1 (centres unmarked) | 0.0842
85 | COc1ccc(C(=O)Cc2ccccc2)cc1F | -0.233
86 | CC(C)(C)c1ccc(OCC(=O)Nc2ccc3c4c(cccc24)C(=O)NC3=O)cc1 | -3.37
87 | O=C(Cn1ncc2c(=O)oc3ccccc3c21)NC1CCN(Cc2ccccc2)CC1 | -4.69
88 | Cc1ccc(Cn2nnc3c(=O)n(Cc4cccc(Cl)c4)cnc32)cc1 | -0.431
89 | Clc1ccc(-c2ncnn2-c2ccccc2Cl)cc1 | -3.4
90 | CC(C)(C)c1ccc(S(=O)(=O)NCc2ccc(C(=O)N3CCOCC3)cc2)cc1 | 0.161
91 | COCCNC(=O)C1CCN(C(=O)c2cnn(-c3ccccc3)c2-n2cccc2)CC1 | 3.4
92 | Cc1cccc(NC(=O)C(C)Oc2ccccc2)n1 (centres unmarked) | 4.11
93 | COc1ccc(OCc2nc3c4c(C)c(C)oc4ncn3n2)cc1 | -2.81
94 | CC(CCc1ccccc1)NC(=O)Cn1ncc2ccsc2c1=O (centres unmarked) | -4.92
95 | CCc1ccc2oc(-c3ccc(N)cc3)nc2c1 | 4.61
